# From the supplement of paper PMC3334620
# Whole data set: some 33,000 sequences, median “E-score (-0.5 to 0.5)” near -0.056, cut for the highest 2% near 0.38. This is one part of the list.
# Molecular target: Stb4 (UniProt P50104)
# Test: PBM E-score (8-mer binding enrichment) (E-score (-0.5 to 0.5)); higher = stronger / more preferred TF binding; most listed sequences are background and not binding sites
# Conditions: protein concentration: 200 nM; construct: GST-DNA-binding domain
# Summary of the method: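 Full-length yeast transcription factors or their DNA-binding domains, GST-tagged and expressed with PURExpress, were applied at about 100-200 nM to universal all-10-mer Agilent arrays. These arrays had been made double-stranded by primer extension on fresh or once-stripped slides. Detection used fluorescent anti-GST, normalisation used masliner, and E-scores for ungapped eight-base words pooled with reverse complements came from the Universal PBM Analysis Suite.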
row,Sequence,PBM E-score
1,GCCTTCCC,-0.00928
2,TCGTACGA,-0.199
3,AACCACGG,0.185
4,ATATAATC,-0.0537
5,CCCAGCGG,-0.0104
6,ATTGGGCC,-0.03
7,CGGCATTA,0.344
8,AGGAGGAC,-0.214
9,CCGCTCTA,0.0787
10,CTGGGGGA,-0.109
11,CAATGGGG,-0.172
12,CGAACACC,0.189
13,CATAGTTC,-0.0247
14,GGTTTTGA,-0.0405
15,GGTTCAGA,0.014
16,AGTGCGAT,-0.188
17,TCTGCCCA,-0.116
18,CCGATACC,0.306
19,TCCAGAGA,-0.207
20,TCAATAAA,-0.142
21,CTTTTGGA,-0.0724
22,AGAGGACC,0.0474
23,CCCTCACA,-0.203
24,ACCATCTC,0.059
25,AACCTTGG,-0.142

row,Sequence,PBM E-score
1,CGCATTAA,-0.0129
2,CCTCCTGC,-0.248
3,CTGGACAA,-0.246
4,CAACCCAG,-0.117
5,ACCACCGA,0.18
6,CGACAAAA,0.2
7,CCCACCGC,0.0372
8,GACCTCAA,-0.211
9,CAGCGAAG,-0.147
10,ATCTCCTG,-0.0504
11,GCGGCGCC,0.0629
12,GCACGCCA,-0.0537
13,ATTGTTCG,0.197
14,CAACCGAG,0.361
15,GCTCGAAA,-0.0196
16,TCTCTAAA,-0.0651
17,ATTCAGGA,0.0181
18,ATAGAGGC,-0.256
19,CCATATGA,-0.213
20,GCATGGTA,0.0539
21,AAAGAACT,-0.0941
22,CTTCACGA,-0.196
23,AGTATCGC,-0.105
24,GTATCGAA,-0.0419
25,CTTTTCGA,-0.212

row,Sequence,PBM E-score
1,TATTCGCA,-0.147
2,CGAACAAA,0.265
3,AAGACGAG,-0.149
4,ATGTCACG,-0.0456
5,CGATGATC,-0.0104
6,AGGGAGGC,-0.158
7,ACTCGCGG,0.0583
8,GAGGCAAA,-0.00172
9,GACGGTGC,-0.0351
10,AGCGTTGA,-0.308
11,GTGGCCAC,-0.0811
12,TGGACACA,-0.0935
13,GCAGGGTA,-0.0729
14,ATGAGGTG,-0.194
15,AATCCCTG,-0.161
16,ATCGCTCG,0.027
17,ACTACACT,-0.14
18,ACGATAAC,-0.134
19,ACTGGAAC,0.013
20,TTTATAAA,0.0491
21,AAGCCAGT,-0.178
22,AGTCGATG,-0.131
23,AAGCCCCG,0.159
24,AATTTGAC,-0.0566
25,GACTCAGA,-0.124

row,Sequence,PBM E-score
1,CAGACCAC,-0.224
2,TACCGAGA,0.431
3,TTGAGCAA,-0.167
4,GCAGAGAC,-0.207
5,GAGTACGC,-0.153
6,ACTGCATC,-0.0835
7,CGGTTAAA,0.313
8,GAGGTTGA,-0.0469
9,CCTAGCGA,-0.284
10,ATTATAAA,0.0595
11,AGAGACGA,-0.061
12,ACCGTTCC,0.376
13,CCGTGAGC,0.111
14,CACCAGTA,-0.306
15,GCAGTGGC,-0.0908
16,ATAGGGGC,0.00011
17,GAACTGGC,0.1
18,ACTACGCG,0.0956
19,CCGAATCG,0.405
20,AGACCACA,-0.155
21,AGAAGAGC,-0.179
22,AAACGTCG,0.104
23,AATTATGT,-0.165
24,AAGTGCCA,-0.128
25,GGATGCAA,0.141

row,Sequence,PBM E-score
1,CGAAAAAC,0.163
2,GTTGTGGA,-0.0843
3,CCCGTCCC,0.114
4,GTAACTGA,-0.299
5,CGAGCATA,-0.0452
6,CAAGGCTC,-0.227
7,TCAACCGA,0.291
8,CAGTATGG,-0.0406
9,AAACTGGA,-0.145
10,CATTACAA,-0.105
11,AAACATAT,0.0375
12,CCACAGTC,-0.32
13,CAGCGTAA,-0.0838
14,CGATCGTC,0.0608
15,CTAGAACA,0.14
16,CCGTAAGA,0.0328
17,ACCTTAGC,-0.258
18,GGGCCCCC,-0.0871
19,AACCCCGA,0.331
20,TGAGCGAA,-0.122
21,AGGGTCAT,-0.205
22,AGCGTACG,-0.00449
23,GTGTAGTA,0.0903
24,CTGGCTGA,-0.0974
25,AACGTCGT,0.0289

row,Sequence,PBM E-score
1,GACCTAAA,0.104
2,AGGTAGGA,-0.152
3,ACACGATA,0.107
4,GAAAGCAA,0.185
5,TGGTCCAA,0.0289
6,CTAGGGAG,-0.242
7,AATCGGTA,0.205
8,AGTTGGAA,-0.00656
9,GAATGTGA,-0.0287
10,CATTCGCA,-0.158
11,TCACCTAA,-0.0212
12,GAGAGCTC,-0.0422
13,CTCCACTA,-0.193
14,AATCGCGT,0.0285
15,AGATCCAG,-0.22
16,ATCAGTTC,-0.0167
17,AGTCGCAA,-0.0974
18,ATTAATAG,-0.105
19,AAGGCCCT,-0.154
20,CCCACCAA,-0.12
21,CTCAAAGC,-0.00181
22,CGGCGAGA,0.142
23,ATGCCACC,-0.0626
24,CTACATAC,-0.0746
25,ATTATAGC,-0.0903

row,Sequence,PBM E-score
1,AATGCCAG,-0.117
2,CCTGCATC,-0.189
3,ATGCGTAG,-0.06
4,ACGATACT,-0.101
5,CGCCAGCA,-0.163
6,TATATGCA,-0.103
7,GTAGTAGA,-0.181
8,CAACAACA,-0.224
9,GCTGGCGA,-0.0904
10,CAGTGGAC,-0.184
11,ATGCCTCA,0.014
12,CGGAGCAG,0.306
13,AGTACGAA,0.016
14,TAGTCGAA,-0.0758
15,CTGTAGGC,-0.194
16,TCTCATCA,-0.275
17,ATTAATCG,0.236
18,GGCTCTGA,-0.0938
19,ATCACTTA,0.0643
20,GTGGGGCA,-0.0164
21,GGTGTAAA,-0.0367
22,CTACACTA,-0.294
